Laboratory results published in publication PMC6919601, “Identification of Plasmodium dipeptidyl aminopeptidase allosteric inhibitors by high throughput screening” (PLoS ONE, 2019).
In all, about 110,000 compounds went through this assay and about 230 (0.21%) showed an effect of 50% or more. The list shows a part of the results.

Target: DPAP1 (Plasmodium falciparum, UniProt Q8IIJ9)
Assay: primary screen, percent inhibition; read by cleavage of a fluorogenic dipeptide substrate; higher = more effect of the substance
Design: species or system P. falciparum D10 trophozoite lysates; single well
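Further: 30 min substrate incubation versus DMSO and 10 µM JCP410 controls.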

DPAP1, sequence (Q8IIJ9 whole entry, looked up): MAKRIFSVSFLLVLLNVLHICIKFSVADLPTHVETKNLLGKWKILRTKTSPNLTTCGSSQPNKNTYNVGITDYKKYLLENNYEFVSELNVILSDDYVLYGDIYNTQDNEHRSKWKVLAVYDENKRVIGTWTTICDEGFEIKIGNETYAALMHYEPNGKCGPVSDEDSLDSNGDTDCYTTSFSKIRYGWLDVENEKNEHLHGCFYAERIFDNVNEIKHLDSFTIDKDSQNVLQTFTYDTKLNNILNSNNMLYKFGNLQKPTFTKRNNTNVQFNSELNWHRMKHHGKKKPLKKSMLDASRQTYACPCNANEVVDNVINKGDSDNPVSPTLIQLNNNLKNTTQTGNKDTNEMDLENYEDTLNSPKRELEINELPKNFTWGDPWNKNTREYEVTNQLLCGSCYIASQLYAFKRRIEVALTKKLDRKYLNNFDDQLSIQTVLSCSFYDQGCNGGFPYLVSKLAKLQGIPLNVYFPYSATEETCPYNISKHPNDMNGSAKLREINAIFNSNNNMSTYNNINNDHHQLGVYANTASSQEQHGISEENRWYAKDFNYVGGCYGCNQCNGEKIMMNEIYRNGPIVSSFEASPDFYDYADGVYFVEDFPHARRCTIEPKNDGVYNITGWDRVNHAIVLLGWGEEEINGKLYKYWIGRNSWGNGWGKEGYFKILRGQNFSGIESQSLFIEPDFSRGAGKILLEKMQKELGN

Compound | % Inhibition @ 10 uM [%]
Cc1ccc(S(=O)(=O)NCCc2ccncc2)cc1 | -8.77
O=C(CNC(=O)c1cccs1)NCCN1CCC(Cc2ccccc2)CC1 | -4.97
CCc1ccc(C2C(C(=O)OC)=C(C)N=C(C)/C2=C(/O)OC)cc1 (centres unmarked) | 4.35
CCC(Oc1ccccc1)C(=O)Nc1ccc(OC)cc1OC (centres unmarked) | 2.36
Cc1ccc(C(=O)N2CCN(C(=O)CSc3nc4ccccc4s3)C2)cc1 | -3.5
CC(C)Cc1ccc(C(C)C(=O)NC(C)C)cc1 (centres unmarked) | 0.00178
CC(C)(C)C1=Nn2c(nnc2-c2ccc(Cl)cc2Cl)SC1 | 6.05
c1ccc(Nc2c3ccccc3nc3ccccc23)nc1 | -8.71
O=P(O)(CN1CCOCC1)CN1CCOCC1 | -4.01
CC1=C(C(=O)NCc2cccnc2)C2(CCCCC2)OC1=O | 1.55
Cc1cc(C)c2c(N)c(-c3nc4ccccc4[nH]3)sc2n1 | 2.18
CN(C)c1nc(N)nc(-c2ccco2)n1 | -3.38
COc1ccc(CCNC(=O)CCc2c(C)nc3ncnn3c2O)c(OC)c1 | -4.97
COc1ccc(S(=O)(=O)N2CCC(C(N)=O)CC2)c2ccccc12 | -2.66
O=C(O)CCCCCNC1CCS(=O)(=O)C1 (centres unmarked) | 0.0539
COc1ccc(-c2[nH]ncc2/C=C/c2cc(C(F)(F)F)nc(O)n2)cc1 | -1.69
Cc1cc(C)n(C(=O)CCC(=O)NCc2ccccc2)n1 | -5.28
O=C(Cn1ncc2c3ccccc3nc-2c1O)NCCC1=CCCCC1 | -3.47
CC1=C(C)CC(C(=O)Nc2sc3c(c2C(N)=O)CCCC3)C(C(=O)O)C1 (centres unmarked) | 3.67
CC(C)NC(=O)c1nnc(-c2ccccc2)o1 | 2
O=C1CCCc2sc([N+](=O)[O-])cc21 | -3.82
O=C(NC(c1ccccc1)c1ccccc1)c1ccc(Br)cc1 | -1.93
CCc1c(C)sc(NC(=O)c2ccccc2OC)c1C(N)=O | 2.01

Compound | % Inhibition @ 10 uM [%]
CN1CCc2c1nc1ccccc1c2NC(=O)C12CC3CC(CC(C3)C1)C2 | 27.1
CCOc1ccc(S(=O)(=O)Nc2ccc(O)c(C(=O)O)c2)cc1 | 2.86
CN1C(=O)S/C(=C/c2ccc(N3CCOCC3)cc2)C1=O | 5.31
CCC(C)c1ccc(O[C@@H]2O[C@H](CO)[C@@H](O)[C@H](O)[C@H]2NC(C)=O)cc1 (some centres unmarked) | 1.64
O=C(CCCCC(=O)NC1CCCC1)NC1CCCC1 | -2.77
Cc1cc2c(cc3c(SCc4nc(-c5ccccc5F)oc4C)nncn32)o1 | 0.0525
Cc1occc1C(=O)NCc1ccc(Cl)cc1 | 1.92
O=C(NC1(Cc2ccccc2F)N=C2C=CC=CN2C1=O)c1ccccc1 (centres unmarked) | -0.637
CCc1nc(C)ccc1O | -0.128
Cn1c(=O)c2c(-c3ccccc3Br)n(-c3ccc4c(c3)nc(CO)n4C)cc2n(C)c1=O | 0.758
CCCC12CN3CC(CCC)(CN(C1)C3C(O)C(O)C(O)C(O)CO)C2=O (centres unmarked) | 2.95
COc1ccc(/C=C2\SC(=O)N(C)C2=O)c(OC)c1 | -6.25
CCOC(=O)NC(=O)c1cn(Cc2ccccc2)c(=O)n(C)c1=O | 2.92
CCN(CC)c1ccc(NC(=O)Cc2ccc(OC)cc2)cc1 | -5.95
Cc1c(C(=O)NCc2ccccc2Br)cc(-c2ccccc2)n1C | 1.68
O=C(c1ccc(F)cc1)N1CCC(N2CCCCCC2)CC1 | -3.33
CC(C)CC(C(=O)NCC#N)c1cccc(-c2csc(N3CCNCC3)n2)c1 (centres unmarked) | 4.63
O=C(NCCSc1c[nH]c2ccccc12)c1ccc(S(=O)(=O)N2CCCCC2)cc1 | -0.228
O=C(O)c1ccccc1C(=O)N1CCN(c2ccccc2)CC1 | 0.956
Nc1ncnc2c1nc(S(=O)(=O)O)n2Cc1ccccc1 | -1.69
COc1cc(OC)c(OC)cc1/C=C1/NC(=O)NC1=O | 3.6
CCCn1c(CCC(=O)NC2CCCCCC2)nc2cccnc21 | -6.67
CC(C)c1c(C#N)c(N)nc(SCC(=O)c2ccc(Cl)c(Cl)c2)c1C#N | -4.26

Compound | % Inhibition @ 10 uM [%]
CCOC(=O)c1nnc(-c2ccccc2)o1 | -3.34
Cc1ccc(OCC(=O)NC2CCCC2)cc1 | -2.27
Cc1cccc(Oc2coc3cc(OCC(=O)N4CCCCC4)ccc3c2=O)c1 | 3.27
Cc1cc(C)n(C(=O)c2ccncc2)n1 | -3.33
COc1cc(/C=C/C(=O)O)cc(S(=O)(=O)N2CCOCC2)c1OC | 3.06
N#CC1=C(N)Oc2[nH]nc(-c3ccc(F)cc3)c2C1c1c[nH]nc1-c1ccc(F)cc1 (centres unmarked) | 0.777
C=CCOc1ccc(C2C(C#N)=C(N)OC3=C2C(=O)CC(C)(C)C3)cc1 (centres unmarked) | -0.99
CCOc1ccc(C2CC(=O)NC3=C2C(=O)CCC3)cc1Cl (centres unmarked) | -1.29
Cc1cc(C)c(-c2c(O)c3cccc4c3n(c2=O)CCC4)c(C)c1 | -4.67
O=C(c1cc2nc(-c3ccc4c(c3)OCO4)cc(C(F)(F)F)n2n1)N1CCCCC1 | 2.25
O=C(c1cc(-c2ccccc2)c(N2CCOCC2)s1)N1CCCC1 | -3.34
CCCc1cc(O)n2nc(SC)nc2n1 | -2.91
CC(C)c1ccc(OCCOCCN2CCNCC2)cc1 | -3.53
CCCCC(=O)Nc1cccc(NC(=O)CCCC)n1 | 2.7
CC1CN(c2nc3c(c(=O)n(C)c(=O)n3C)n2C)CC(C)O1 (centres unmarked) | 1.9
Cc1ccc(C)c(NS(=O)(=O)Cc2ccccc2)c1 | -0.446
COc1ccccc1C(=O)NC(C)c1ccc2c(c1)OCO2 (centres unmarked) | -5.81
OC1(c2ccc(Cl)cc2)CCN(Cc2ccc(F)c(F)c2)CC1 | -7.42
Cc1ccc(C(=O)NCc2nc(-c3ccccc3)no2)cc1C | -2.99
CC(NS(=O)(=O)c1ccc(OCC(=O)Nc2c(F)cccc2F)cc1)c1ccccc1 (centres unmarked) | -6.25
COc1ccc(N(CC(=O)NC(C)(C)C)S(C)(=O)=O)cc1Cl | 3.17
CSc1nc(Oc2ccc(F)cc2)cc(-n2ncc(C#N)c2N)n1 | 1.82
